PubChem BioAssay AID686971 (National Center for Advancing Translational Sciences (NCATS), 2013)
About 7,500 (2.1%) of roughly 360,000 compounds were called active. Inconclusive results, whose numbers are uncertain, are shown with a selection of clear calls. Calls come from the whole dose curve; as a rule, active = well fitted cell-killing curve with a large enough effect; inconclusive = small, poorly fitted or top-dose-only effect, or effect the other way, or another doubt; inactive = no such curve, though single readings can be large or run the other way. Potencies of inconclusive entries are left out as doubtful fits.
Potency is the fitted concentration of half-maximal effect; tags give direction and shape of the fitted curve.

Test: qHTS for induction of synthetic lethality in tumor cells producing 2HG: qHTS for the HT-1080-IDH1KD cell line;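 for activity, negative = toxicity: 0% = DMSO wells and -100% = cell-free medium wells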
Settings: HT-1080 IDH1 knockdown viability, ATP luminescence, 48 h; activity, negative = toxicity: at 46.1 µM (top of the series) unless noted
Summary of the method: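 Assay cells: HT-1080 with IDH1 knockdown, 750 per well, RPMI/5% FBS. Exposure: 48 h at 37 °C following 2 h pre-incubation. Read: CellTiter-Glo luminescence; fitted concentration-response, curve class assigned.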
For `COc1ccc(COc2cc(-c3cccc(OC)c3)nc3ccc(NC(=O)c4ccccc4)cc23)cc1`, the Potency was active: 23.1 µM.
With `N#C/C(=C\Nc1ccc2cn[nH]c2c1)c1nc(-c2ccccc2)cs1` the Potency was inconclusive [cytotoxic, single point].
In the case of `COc1c(N2CCN(C(=S)NCc3ccccc3)C(C)C2)c(F)cc2c(=O)c(C(=O)O)cn(C3CC3)c12` (stereo not drawn), the Potency is reported as active: 18.4 µM.
In the case of `N=c1sccn1CC(=O)N1N=C(c2ccc(Cl)cc2)CC1c1ccco1` (stereo not drawn), the Potency is reported as inconclusive [cytotoxic, single point].
For `COc1ccc(N2C(=O)CC(Sc3nc(C)cc(C)n3)C2=O)cc1OC` (stereo not drawn), the Potency was “inactive”.
In the case of `CCCCN(C)C(=O)C1CCC(CNS(=O)(=O)c2ccc3c(c2)CC(C)N3C(C)=O)CC1` (stereo not drawn), the Potency is reported as “inactive”.
With `O=C(CSc1n[nH]c(-c2ccncc2)n1)Nc1ccc(Cl)c(Cl)c1` the Potency was “inactive”.
With `Cc1ccc(C(=O)CC(=O)COc2ccc(Cl)cc2C)cc1` the Potency was inconclusive [cytotoxic, partial curve].
For `Cc1ccc(C2CC(c3cccs3)=NN2C(=O)CSC2=NN3CCCC(=O)N=C3S2)cc1` (stereo not drawn), the Potency was “inactive”.
In the case of `O=C1C(=O)c2cccnc2-c2ncccc21`, the Potency is reported as active: 0.58 µM.
With `Nc1ccn([C@@H]2O[C@H](C(=O)N3CCSC3)[C@@H](O)[C@H]2O)c(=O)n1` the Potency was “inactive”.
With `Nc1[nH]c(C(=O)c2ccccc2)c(-c2c(F)cccc2F)c1C(=O)c1ccc(Cl)c(Cl)c1` the activity, negative = toxicity was inconclusive: -20.6% [cytotoxic].
With `Cc1ccc(CSC2=NCCN2S(=O)(=O)c2ccc(F)cc2)cc1` the Potency was “inactive”.
In the case of `Cc1ccc2sc(N(CCCN(C)C)C(=O)CN3C(=O)c4ccccc4C3=O)nc2c1C`, the Potency is reported as inconclusive [cytotoxic, single point].
With `O=C(N/N=C\c1ccc(Cl)s1)c1cccs1` the Potency was inconclusive [cytotoxic, single point].
With `Cc1ccc(NCC(=O)N/N=C/c2ccc(OC(=O)c3ccco3)cc2)cc1` the Potency was inconclusive [cytotoxic, single point].
For `Cc1ccc(OCC(=O)Nc2cccc(-c3nnc(-c4ccccc4)o3)c2)c(C)c1`, the Potency was inconclusive [cytotoxic, single point].
For `COc1ccc(CNC(=O)C2(C)Cc3c(-c4ccc5c(c4)OCO5)ccnc3O2)cc1OC` (stereo not drawn), the Potency was inconclusive [cytotoxic, single point].
With `CCC(=O)N(C)C[C@H]1Oc2ncc(C#Cc3ccncc3)cc2C(=O)N([C@@H](C)CO)C[C@@H]1C` the Potency was “inactive”.
In the case of `COc1ccc(CNCCC(c2ccc(OC)cc2)c2ccccc2OC)cc1` (stereo not drawn), the Potency is reported as active: 20.6 µM.
For `Cc1ccc(C(=O)NN(C)c2nc3ccccc3nc2C(F)(F)F)cc1`, the Potency was inconclusive [cytotoxic, full curve].
In the case of `CCN(CC)CCn1nc2c3c(cccc3c1=O)-c1ccccc1-2`, the Potency is reported as active: 20.6 µM.
With `CCOC(=O)c1ccc(S(=O)(=O)N2CCC(C(=O)OCC)CC2)cc1` the Potency was inconclusive [rising, full curve, poor fit].
With `NC(=O)c1ccc(NC(=O)CSc2nnc(-c3cccnc3)n2Cc2ccco2)cc1` the Potency was “inactive”.
In the case of `CSc1ncccc1C(=O)N1CCN(C(=O)c2ccccc2)CC1`, the Potency is reported as “inactive”.
For `CCN(Cc1ccccc1)C(c1cccc(C#N)c1)c1nnnn1C(C)(C)C` (stereo not drawn), the Potency was inconclusive [cytotoxic, single point].
With `CC(C(=O)O)n1nc(-c2ccccc2)c2ccccc21` (stereo not drawn) the Potency was “inactive”.
With `O=C(Nc1ccc(F)cc1F)NC1CCN(S(=O)(=O)c2ccc(F)cc2)CC1` the Potency was “inactive”.
For `CCOc1c(Br)cc(/C=C2\N=C(C)OC2=O)cc1Br`, the Potency was “inactive”.
In the case of `CC(/C=C/c1ccccc1F)=N\NC(=O)c1ccc(Cl)cc1`, the Potency is reported as active: 7.31 µM.
For `O=C1CC(N2CCN(c3ccccn3)CC2)C(=O)N1c1ccc(F)cc1` (stereo not drawn), the Potency was inconclusive [rising, single point].
With `CC(C)CC(N)C(=O)OCc1ccc([N+](=O)[O-])cc1` (stereo not drawn) the Potency was “inactive”.
With `COc1ccccc1N(Cc1ccccc1)S(=O)(=O)c1cccc(C(=O)N2CCCCC2)c1` the Potency was inconclusive [cytotoxic, single point].
For `COCCNc1nc(NCc2ccc(C(C)C)cc2)c2sccc2n1`, the Potency was active: 18.4 µM.
In the case of `S=C(Nc1ccccc1)Nc1nc2ccccc2n1CCOc1ccc(Cl)cc1`, the Potency is reported as inconclusive [cytotoxic, single point].
In the case of `CC(=O)N1C(Nc2ccc(Cl)cc2)CCN1c1ccccc1` (stereo not drawn), the Potency is reported as inconclusive [cytotoxic, partial curve].
With `COc1ccc(S(=O)(=O)Nc2ccc3c(c2)n(C)c(=O)n3C)cc1F` the Potency was “inactive”.
For `COC(=O)CC1C(=O)NCCN1C(=S)NC(=O)c1ccccc1[N+](=O)[O-]` (stereo not drawn), the activity, negative = toxicity was inconclusive: 36.8%.
For `CCCc1nc2ccccc2c(=O)n1/N=C/c1c(C)[nH]n(-c2ccc(C)cc2)c1=O`, the Potency was active: 18.4 µM.
In the case of `O=C(CNC(=O)c1ccc(Br)o1)Nc1cccc(-c2cnc3ccccc3n2)c1`, the Potency is reported as inconclusive [cytotoxic, single point].
With `O=C(Cn1c(=O)sc2ccccc21)Nc1ccccc1` the Potency was “inactive”.
In the case of `CC1CCC(C(C)C)C(OC(=O)C[n+]2cc(-c3ccc(Cl)cc3)n3c2CCC3)C1` (stereo not drawn), the Potency is reported as inconclusive [cytotoxic, single point].
In the case of `Cc1cc(C)c(C)c(S(=O)(=O)NC2CCCCC2)c1C`, the Potency is reported as inconclusive [cytotoxic, single point].
For `CNC(=S)Nc1cc(OC)ccc1OC`, the Potency was “inactive”.
For `NNc1cc2c(nn1)CCN(C(=O)c1ccccc1)C2`, the Potency was inconclusive [cytotoxic, single point].
With `CCOc1cccc(CNc2ccc(O)cc2)c1OCc1ccccc1Cl` the Potency was inconclusive [cytotoxic, single point].
In the case of `Cc1noc2ncc(C(=O)c3cc(F)ccc3O)cc12`, the Potency is reported as “inactive”.
For `CCN(Cc1ccc(OC)c(F)c1)C(=O)CCl`, the Potency was active: 16.4 µM.
In the case of `CCN(CC)CCOC(=O)C(c1ccccc1)C1CCCCC1` (stereo not drawn), the Potency is reported as inconclusive [cytotoxic, single point].
With `Cc1ccc(-c2[nH]ncc2C(=O)c2ccc(Br)cc2)c(O)c1` the Potency was inconclusive [cytotoxic, single point].
With `COc1ccccc1CCc1nnc(CCC(=O)NCCOc2cccnc2)o1` the Potency was inconclusive [cytotoxic, single point].
In the case of `CCCCn1c(N)c(N(CC(C)C)C(=O)c2cc(Cl)nc3ccccc23)c(=O)[nH]c1=O`, the Potency is reported as “inactive”.
For `COc1ccc(/C=C/C(=O)OCC(=O)NCc2ccccc2)cc1OC`, the Potency was inconclusive [cytotoxic, single point].
In the case of `COC(=O)c1sccc1NC(=O)CN(C)NS(=O)(=O)c1ccc(F)cc1`, the Potency is reported as “inactive”.
In the case of `CCOC(=O)c1sc(Nc2ccccc2)nc1C`, the Potency is reported as inconclusive [cytotoxic, single point].
With `CCOc1ccc(OCCC(=O)N(CCC2=CCCCC2)c2c(N)n(Cc3ccccc3)c(=O)[nH]c2=O)cc1` the Potency was “inactive”.
With `CN(C)CCCN1c2ccc(O)cc2Sc2ccc(Cl)cc21` the Potency was inconclusive [cytotoxic, single point].
In the case of `CC(C)CC1C(=O)N(Cc2cn(CCC3OCCO3)nn2)CCS(=O)(=O)N1Cc1ccc(-c2ccc(Cl)c(Cl)c2)cc1` (stereo not drawn), the Potency is reported as inconclusive [cytotoxic, single point].
For `CC(C)(C)c1csc(NC(=O)c2cccnc2)n1`, the Potency was “inactive”.
For `CC(C)(C)C1CCc2c(sc(NC(=O)C3CC=CCC3C(=O)O)c2C#N)C1` (stereo not drawn), the Potency was inconclusive [cytotoxic, single point].
With `C(=N\Nc1nc2ccccc2[nH]1)/c1cccc2nccnc12` the Potency was inconclusive [cytotoxic, full curve].
For `COc1ccc(Cl)c2sc(NC(=O)C3=COCCO3)nc12`, the Potency was inconclusive [cytotoxic, single point].
For `COc1ccccc1-c1cn[nH]c1-c1ccc(OCc2ccccc2)cc1O`, the Potency was inconclusive [cytotoxic, single point].
In the case of `CS(=O)(=O)N(Cc1ccc(C(=O)Nc2ccccc2Sc2ccccc2)cc1)c1ccccc1`, the Potency is reported as inconclusive [cytotoxic, single point].
With `C[C@H]1CN([C@@H](C)CO)C(=O)c2cc(Br)cnc2O[C@@H]1CN(C)C(=O)Nc1ccc(C(F)(F)F)cc1` the Potency was “inactive”.
For `CN(C)CCNS(=O)(=O)c1ccc(N2CCc3ccccc32)c([N+](=O)[O-])c1`, the Potency was inconclusive [cytotoxic, partial curve].
For `CCCCNS(=O)(=O)c1ccc(NC(=O)C(Sc2ccccc2)c2ccccc2)cc1` (stereo not drawn), the Potency was inconclusive [cytotoxic, single point].
For `N#Cc1ccc(C(=O)Nc2ccn(-c3ccccc3)n2)cc1`, the Potency was inconclusive [cytotoxic, single point].
In the case of `CCC(=O)N(C)C[C@H]1Oc2ncc(C#Cc3cccnc3)cc2C(=O)N([C@@H](C)CO)C[C@@H]1C`, the Potency is reported as “inactive”.
In the case of `CCCCCCN1C[C@@H](O)[C@H](n2cc(C3CC3)nn2)C[C@@H]1c1ccc(Cl)cc1`, the Potency is reported as inconclusive [cytotoxic, single point].
In the case of `CCC(CC)C(=O)N(C)c1c(C)nc2c(OCc3ccc(Cl)cc3Cl)cccn12`, the Potency is reported as inconclusive [cytotoxic, single point].
With `Cc1c(Cl)sn(-c2ccc(Cl)cc2)c1=O` the Potency was active: 2.59 µM.
With `CCOC(=O)N1CCN(C(=O)C[C@@H]2C[C@@]3(C(=O)OCC)CCC=C3N(Cc3ccc4c(c3)OCO4)C2=O)CC1` the Potency was inconclusive [cytotoxic, single point].
